Source: PubChem BioAssay AID250 (DTP/NCI, 2004)
Values joined by “and” are separate entries in the source; they are usually repeats but may differ in a detail not shown here. Equal values may be shown once. Further values from the same series stand in other lists. Inconclusive results and toxic doses are left out. Rule for the calls: active = survival T/C of 150% or more; inactive = T/C below 125% in these data.

Tested on: BDF1 mice, L1210 leukemia sc, survival T/C
Assay: NCI In Vivo Anticancer Drug Screen. Data for tumor model L1210 Leukemia (subcutaneous) in B6D2F1 (BDF1) mice
Conditions: higher = longer survival
Method: The antitumor activity of compounds was measured in mice bearing transplantable tumors. Survival or tumor size were measured and the results are expressed as the measurement made in the treated group (T) divided by the measurement made in the vehicle treated control group (C). The tumor model used in this assay is L1210 Leukemia (subcutaneous) in B6D2F1 (BDF1) mice

Measured: T/C

CN(Cc1cnc2nc(N)nc(N)c2n1)c1ccc(C(=O)N[C@@H](CCC(=O)O)C(=O)O)cc1
active: endpoint: mean survival time, dose: 1.08 mg/kg/injection, schedule: Q01DX009 (sc), vehicle: other 175 % of control | endpoint: mean survival time, dose: 1.5 mg/kg/injection, schedule: Q01DX015 (ip), vehicle: other 180 % of control and 188 % of control and 203 % of control | endpoint: mean survival time, dose: 1.8 mg/kg/injection, schedule: Q01DX009 (sc), vehicle: other 194 % of control | endpoint: mean survival time, dose: 2.0 mg/kg/injection, schedule: Q01DX015 (ip), vehicle: other 178 % of control and 182 % of control and 198 % of control | endpoint: mean survival time, dose: 3.0 mg/kg/injection, schedule: Q01DX009 (sc), vehicle: other 174 % of control | endpoint: mean survival time, dose: 4.0 mg/kg/injection, schedule: Q01DX009 (ip), vehicle: sodium bicarbonate 187 % of control | endpoint: median survival time, dose: 0.05 mg/kg/injection, schedule: Q## X Z (sc), vehicle: other 255 % of control | endpoint: median survival time, dose: 0.08 mg/kg/injection, schedule: Q## X Z (sc), vehicle: other 233 % of control | endpoint: median survival time, dose: 0.14 mg/kg/injection, schedule: Q## X Z (sc), vehicle: other 233 % of control | endpoint: median survival time, dose: 0.23 mg/kg/injection, schedule: Q## X Z (sc), vehicle: other 177 % of control | endpoint: median survival time, dose: 0.23 mg/kg/injection, schedule: Q#A X Z (sc), vehicle: other 266 % of control | endpoint: median survival time, dose: 0.37 mg/kg/injection, schedule: Q01DX Z (sc), vehicle: sodium bicarbonate 300 % of control | endpoint: median survival time, dose: 0.38 mg/kg/injection, schedule: Q01DX Z (sc), vehicle: other 268 % of control | endpoint: median survival time, dose: 0.39 mg/kg/injection, schedule: Q01DX008 (sc), vehicle: other 200 % of control | endpoint: median survival time, dose: 0.39 mg/kg/injection, schedule: Q#A X Z (sc), vehicle: other 261 % of control | endpoint: median survival time, dose: 0.4 mg/kg/injection, schedule: Q01DX Z (sc), vehicle: other 237 % of control | endpoint: median survival time, dose: 0.49 mg/kg/injection, schedule: Q01DX Z (sc), vehicle: other 227 % of control | endpoint: median survival time, dose: 0.52 mg/kg/injection, schedule: Q01DX Z (sc), vehicle: other 209 % of control and 227 % of control and 255 % of control | endpoint: median survival time, dose: 0.54 mg/kg/injection, schedule: Q01DX Z (sc), vehicle: other 244 % of control | endpoint: median survival time, dose: 0.54 mg/kg/injection, schedule: Q01DX Z (sc), vehicle: water 316 % of control | endpoint: median survival time, dose: 0.59 mg/kg/injection, schedule: Q01DX Z (sc), vehicle: other 210 % of control | endpoint: median survival time, dose: 0.62 mg/kg/injection, schedule: Q01DX Z (sc), vehicle: other 220 % of control and 233 % of control | endpoint: median survival time, dose: 0.64 mg/kg/injection, schedule: Q01DX Z (ip), vehicle: other 244 % of control | endpoint: median survival time, dose: 0.65 mg/kg/injection, schedule: Q01DX008 (sc), vehicle: other 220 % of control | endpoint: median survival time, dose: 0.65 mg/kg/injection, schedule: Q01DX009 (sc), vehicle: other 177 % of control | endpoint: median survival time, dose: 0.65 mg/kg/injection, schedule: Q01DX025 (sc), vehicle: other 173 % of control and 177 % of control | endpoint: median survival time, dose: 0.65 mg/kg/injection, schedule: Q01DX Z (ip), vehicle: other 250 % of control | endpoint: median survival time, dose: 0.65 mg/kg/injection, schedule: Q01DX Z (sc), vehicle: saline 281 % of control | endpoint: median survival time, dose: 0.65 mg/kg/injection, schedule: Q01DX Z (sc), vehicle: water 263 % of control | endpoint: median survival time, dose: 0.65 mg/kg/injection, schedule: Q#A X Z (sc), vehicle: other 216 % of control | endpoint: median survival time, dose: 0.67 mg/kg/injection, schedule: Q01DX Z (sc), vehicle: other 250 % of control | endpoint: median survival time, dose: 0.75 mg/kg/injection, schedule: Q01DX012 (ip), vehicle: sodium bicarbonate 188 % of control | endpoint: median survival time, dose: 0.75 mg/kg/injection, schedule: Q01DX Z (sc), vehicle: sodium bicarbonate 266 % of control | endpoint: median survival time, dose: 0.78 mg/kg/injection, schedule: Q01DX Z (iv), vehicle: other 231 % of control | endpoint: median survival time, dose: 0.79 mg/kg/injection, schedule: Q01DX Z (sc), vehicle: other 216 % of control | endpoint: median survival time, dose: 0.84 mg/kg/injection, schedule: Q01DX Z (sc), vehicle: other 208 % of control and 273 % of control | endpoint: median survival time, dose: 0.86 mg/kg/injection, schedule: Q01DX Z (sc), vehicle: water 305 % of control | endpoint: median survival time, dose: 0.89 mg/kg/injection, schedule: Q01DX Z (sc), vehicle: other 275 % of control | endpoint: median survival time, dose: 0.94 mg/kg/injection, schedule: Q01DX Z (sc), vehicle: other 227 % of control | endpoint: median survival time, dose: 0.98 mg/kg/injection, schedule: Q01DX Z (sc), vehicle: other 266 % of control | endpoint: median survival time, dose: 1.07 mg/kg/injection, schedule: Q01DX Z (ip), vehicle: other 250 % of control | endpoint: median survival time, dose: 1.08 mg/kg/injection, schedule: Q01DX008 (sc), vehicle: other 225 % of control | endpoint: median survival time, dose: 1.08 mg/kg/injection, schedule: Q01DX015 (sc), vehicle: other 183 % of control and 184 % of control | endpoint: median survival time, dose: 1.08 mg/kg/injection, schedule: Q01DX025 (sc), vehicle: other 188 % of control and 189 % of control | endpoint: median survival time, dose: 1.08 mg/kg/injection, schedule: Q01DX Z (sc), vehicle: saline 275 % of control | endpoint: median survival time, dose: 1.08 mg/kg/injection, schedule: Q01DX Z (sc), vehicle: water 245 % of control | endpoint: median survival time, dose: 1.09 mg/kg/injection, schedule: Q01DX Z (sc), vehicle: other 227 % of control and 229 % of control and 250 % of control | endpoint: median survival time, dose: 1.12 mg/kg/injection, schedule: Q01DX Z (sc), vehicle: other 204 % of control | endpoint: median survival time, dose: 1.25 mg/kg/injection, schedule: Q01DX Z (sc), vehicle: other 227 % of control and 235 % of control | endpoint: median survival time, dose: 1.3 mg/kg/injection, schedule: Q01DX Z (iv), vehicle: other 237 % of control | endpoint: median survival time, dose: 1.3 mg/kg/injection, schedule: Q01DX Z (oral), vehicle: other 237 % of control | endpoint: median survival time, dose: 1.31 mg/kg/injection, schedule: Q01DX Z (sc), vehicle: other 204 % of control | endpoint: median survival time, dose: 1.33 mg/kg/injection, schedule: Q01DX Z (sc), vehicle: other 250 % of control | endpoint: median survival time, dose: 1.4 mg/kg/injection, schedule: Q01DX Z (sc), vehicle: other 225 % of control and 265 % of control | endpoint: median survival time, dose: 1.44 mg/kg/injection, schedule: Q01DX Z (sc), vehicle: water 300 % of control | endpoint: median survival time, dose: 1.5 mg/kg/injection, schedule: Q01DX Z (sc), vehicle: sodium bicarbonate 333 % of control | endpoint: median survival time, dose: 1.79 mg/kg/injection, schedule: Q01DX Z (ip), vehicle: other 177 % of control | endpoint: median survival time, dose: 1.8 mg/kg/injection, schedule: Q01DX008 (sc), vehicle: other 183 % of control and 205 % of control | endpoint: median survival time, dose: 1.8 mg/kg/injection, schedule: Q01DX010 (sc), vehicle: other 177 % of control | endpoint: median survival time, dose: 1.8 mg/kg/injection, schedule: Q01DX013 (sc), vehicle: other 174 % of control | endpoint: median survival time, dose: 1.8 mg/kg/injection, schedule: Q01DX025 (sc), vehicle: other 194 % of control and 200 % of control | endpoint: median survival time, dose: 1.8 mg/kg/injection, schedule: Q01DX Z (ip), vehicle: other 260 % of control | endpoint: median survival time, dose: 1.8 mg/kg/injection, schedule: Q01DX Z (oral), vehicle: other 200 % of control | endpoint: median survival time, dose: 1.8 mg/kg/injection, schedule: Q01DX Z (sc), vehicle: saline 268 % of control | endpoint: median survival time, dose: 1.8 mg/kg/injection, schedule: Q01DX Z (sc), vehicle: water 213 % of control | endpoint: median survival time, dose: 1.8 mg/kg/injection, schedule: Q02DX Z (sc), vehicle: other 177 % of control | endpoint: median survival time, dose: 1.81 mg/kg/injection, schedule: Q01DX Z (sc), vehicle: other 191 % of control and 218 % of control and 240 % of control | endpoint: median survival time, dose: 1.87 mg/kg/injection, schedule: Q01DX Z (sc), vehicle: other 191 % of control | endpoint: median survival time, dose: 1.88 mg/kg/injection, schedule: Q01DX Z (sc), vehicle: other 216 % of control | endpoint: median survival time, dose: 1.95 mg/kg/injection, schedule: Q01DX Z (sc), vehicle: other 250 % of control | endpoint: median survival time, dose: 2.16 mg/kg/injection, schedule: Q01DX Z (iv), vehicle: other 243 % of control | endpoint: median survival time, dose: 2.16 mg/kg/injection, schedule: Q01DX Z (oral), vehicle: other 212 % of control | endpoint: median survival time, dose: 2.18 mg/kg/injection, schedule: Q01DX Z (sc), vehicle: other 191 % of control | endpoint: median survival time, dose: 2.2 mg/kg/injection, schedule: Q01DX Z (sc), vehicle: other 195 % of control | endpoint: median survival time, dose: 2.33 mg/kg/injection, schedule: Q01DX Z (sc), vehicle: other 173 % of control | endpoint: median survival time, dose: 2.4 mg/kg/injection, schedule: Q01DX Z (sc), vehicle: water 211 % of control | endpoint: median survival time, dose: 2.5 mg/kg/injection, schedule: Q01DX Z (sc), vehicle: other 180 % of control and 188 % of control | endpoint: median survival time, dose: 3.0 mg/kg/injection, schedule: Q01DX008 (sc), vehicle: other 175 % of control and 188 % of control | endpoint: median survival time, dose: 3.0 mg/kg/injection, schedule: Q01DX013 (sc), vehicle: other 184 % of control | endpoint: median survival time, dose: 3.0 mg/kg/injection, schedule: Q01DX015 (sc), vehicle: other 177 % of control and 181 % of control | endpoint: median survival time, dose: 3.0 mg/kg/injection, schedule: Q01DX025 (sc), vehicle: other 180 % of control and 183 % of control | endpoint: median survival time, dose: 3.0 mg/kg/injection, schedule: Q01DX Z (sc), vehicle: saline 193 % of control | endpoint: median survival time, dose: 3.0 mg/kg/injection, schedule: Q02DX Z (sc), vehicle: other 244 % of control | endpoint: median survival time, dose: 3.6 mg/kg/injection, schedule: Q01DX Z (oral), vehicle: other 262 % of control | endpoint: median survival time, dose: 5.0 mg/kg/injection, schedule: Q01DX Z (oral), vehicle: other 205 % of control | endpoint: median survival time, dose: 5.0 mg/kg/injection, schedule: Q02DX009 (sc), vehicle: other 193 % of control | endpoint: median survival time, dose: 5.0 mg/kg/injection, schedule: Q02DX Z (sc), vehicle: other 194 % of control and 200 % of control | endpoint: median survival time, dose: 23.0 mg/kg/injection, schedule: Q04DX005 (sc), vehicle: sodium bicarbonate 216 % of control | endpoint: median survival time, dose: 23.0 mg/kg/injection, schedule: Q## X Z (sc), vehicle: other 176 % of control and 178 % of control
